{
  "source": "patent US12564635B2",
  "about": "“Long-lived gadolinium based tumor targeted imaging and therapy agents” (WISCONSIN ALUMNI RESEARCH FOUNDATION, priority 2015, dated 2026)",
  "system": "flank U87 (human glioma) tumor",
  "assay": "In vivo MRI of flank U87 xenograft mice",
  "conditions": "FIG. 14",
  "data": [
    {"smiles": "CNC[C@H](O)[C@@H](O)[C@H](O)[C@H](O)CO.O=C([O-])CN1CCN(CC(=O)[O-])CCN(CC(=O)O)CCN(CC(=O)[O-])CC1.[Gd+3]", "note": "[DOTAREM®, reference compound]", "values": [
      {"measurement": "tumor to muscle ratio compared to baseline scans, versus Gd-DO3A-404", "result": "less striking, and significant only at a couple of early time points"}
    ]}
  ]
}
